Results on 44 compounds are retold here after PMC4336329 (PLoS ONE, 2015).

The whole screen tested about 310,000 compounds, of which about 2,200 (0.71%) showed an effect of 50% or more. The effect is printed as a negative number. The list shows a part of the results.

Chain of human ether-à-go-go-related gene (hERG) potassium channel (Q12809 whole entry, looked up): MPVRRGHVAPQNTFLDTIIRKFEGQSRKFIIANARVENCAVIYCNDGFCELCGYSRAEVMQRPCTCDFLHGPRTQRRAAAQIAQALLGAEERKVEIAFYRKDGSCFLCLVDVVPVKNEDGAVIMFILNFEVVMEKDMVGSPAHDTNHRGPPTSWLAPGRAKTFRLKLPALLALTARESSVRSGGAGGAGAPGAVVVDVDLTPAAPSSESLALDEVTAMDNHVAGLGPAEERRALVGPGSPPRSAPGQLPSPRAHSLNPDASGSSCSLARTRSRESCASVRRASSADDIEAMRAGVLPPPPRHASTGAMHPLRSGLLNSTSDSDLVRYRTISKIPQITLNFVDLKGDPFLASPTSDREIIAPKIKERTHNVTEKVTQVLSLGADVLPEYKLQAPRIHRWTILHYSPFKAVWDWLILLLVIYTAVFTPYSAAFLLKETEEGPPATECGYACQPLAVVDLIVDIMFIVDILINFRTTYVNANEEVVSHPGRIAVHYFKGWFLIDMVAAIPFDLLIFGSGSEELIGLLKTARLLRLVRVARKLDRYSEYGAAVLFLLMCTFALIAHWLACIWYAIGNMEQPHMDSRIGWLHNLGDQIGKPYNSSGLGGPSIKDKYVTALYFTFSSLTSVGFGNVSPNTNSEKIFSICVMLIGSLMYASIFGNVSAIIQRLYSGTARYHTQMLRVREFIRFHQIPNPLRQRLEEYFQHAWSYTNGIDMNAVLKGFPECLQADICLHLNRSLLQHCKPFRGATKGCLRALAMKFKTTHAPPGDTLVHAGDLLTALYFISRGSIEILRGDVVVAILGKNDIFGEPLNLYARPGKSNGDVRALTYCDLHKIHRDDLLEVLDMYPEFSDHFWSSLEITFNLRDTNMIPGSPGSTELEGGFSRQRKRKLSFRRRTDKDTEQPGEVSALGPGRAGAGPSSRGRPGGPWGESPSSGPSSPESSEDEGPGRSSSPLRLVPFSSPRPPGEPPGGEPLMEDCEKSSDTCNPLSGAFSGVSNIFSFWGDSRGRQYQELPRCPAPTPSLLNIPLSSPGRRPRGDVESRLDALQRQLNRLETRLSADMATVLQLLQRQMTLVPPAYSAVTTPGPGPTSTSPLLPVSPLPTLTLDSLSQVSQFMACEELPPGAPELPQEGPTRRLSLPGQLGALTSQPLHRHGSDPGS

This assay addresses human ether-à-go-go-related gene (hERG) potassium channel (human, UniProt Q12809). The experiment in a line: primary screen, population patch clamp on CHO cells stably expressing hERG.
For the compound `COc1n[nH]c(C(=O)Nc2cc(Cl)ccc2Cl)c1[N+](=O)[O-]`, the “hERG current change (%, negative = inhibition) at 1uM” value was 11.6%.
With `C(=NC12CN3CN(CN(C3)C1)C2)c1cccnc1`, the “hERG current change (%, negative = inhibition) at 1uM” value amounted to 12.7%.
The figure for `Cc1cccc(N2CC34C=CC(O3)C(C(=O)O)C4C2=O)c1` (centres unmarked) is 6.38%; for `O=C(Nc1cccnc1Cl)c1ccc(S(=O)(=O)N2CCCCCC2)cc1` it is 2.57%; for `COc1ccc(N2CC(C(=O)Nc3cc(C)on3)CC2=O)cc1` (centres unmarked) it is 12.3%.
The figure for `O=C(CN1C(=O)c2cccnc2Oc2ccc(Cl)cc21)NCCC1=CCCCC1` is 4.44%; for `COc1ccc(NC(=O)c2ccc(C(=O)Nc3ccc(OC)cc3OC)cc2)c(OC)c1` it is 5.18%.
Under `CC(C)CCNc1nc(N)c([N+](=O)[O-])c(NCC2CCCO2)n1` (centres unmarked) stands 0.142%.
Consider `Cc1ccc(S(=O)(=O)N2CCOC2CNC(=O)C(=O)NCCc2ccccc2)cc1` (centres unmarked), for which the “hERG current change (%, negative = inhibition) at 1uM” value is reported as 4.95%.
`COc1ccccc1OCCC(=O)OCC(=O)NCc1ccc(Cl)cc1`: the “hERG current change (%, negative = inhibition) at 1uM” value was -3.18%.
Under `COC(=O)Nc1nnc(/C=C/c2ccccc2)s1` stands 10.5%; under `O=C(NCc1cccc2ccccc12)c1cccs1`, 16.4%.
The figure for `O=C(CN1CCN(Cc2ccc(F)cc2)CC1)Nc1ccccc1F` is -12%; for `CCC(=O)NCc1c(Cl)cccc1-n1cccc1` it is 6.64%; for `S=c1[nH]nc(-c2ccco2)n1/N=C/c1ccc(Cl)c(Cl)c1` it is 8.2%.
Under `COc1ccc2oc(C(=O)OCC(=O)N(CC(C)C)c3c(N)n(Cc4ccccc4)c(=O)[nH]c3=O)c(C)c2c1` stands 7.49%; under `COc1ccc2oc(-c3ccccc3)c(C(N)=O)c2c1`, 13.2%.
`COc1cc(OC)c(C(=O)NC2CCCCCC2)cc1OC`: the “hERG current change (%, negative = inhibition) at 1uM” value is 4.33%.
Regarding `CCOC(=O)c1c(C)[nH]c(C(=O)COC(=O)c2ccc(O)cc2)c1C`, the “hERG current change (%, negative = inhibition) at 1uM” value is recorded as 14.3%.
Under `COCCN(C(=O)c1cccc(N2C(=O)CCC2=O)c1)c1nc(-c2ccc([N+](=O)[O-])cc2)cs1` stands -19.2%; under `Cc1cc(OCC(=O)Nc2ccncc2)ccc1Br`, 15%.
The figure for `Cc1cc(C)cc(NC(=O)N2CCCN(Cc3c(F)cccc3Cl)CC2)c1` is 5.85%; for `COc1cccc(/C=C/C(=O)OCC(=O)NCCc2ccccc2)c1` it is 4.44%.
As for `Cc1cnc(NC(=O)CCCNC(=O)c2ccc(Cl)cc2)s1`, the “hERG current change (%, negative = inhibition) at 1uM” value amounted to 15.1%.
Under `COC(=O)c1ccc2[nH]c(C)cc(=O)c2c1` stands 9.04%; under `Cc1ccc(NC2(C#N)C(=O)Nc3ccccc32)cc1C` (centres unmarked), 7.55%; under `O=C(COC(=O)c1ccccc1C(=O)c1ccc(Cl)cc1)NCC1CCCO1` (centres unmarked), 14.6%.
Take `CCN(CC)C(=O)CSc1nc2ccccc2c(=O)n1OC`: the “hERG current change (%, negative = inhibition) at 1uM” value is recorded as -3.33%.
Under `CCOC(=O)[C@H]1[C@H]2COc3cc(OC)ccc3[C@@H]2N2C(=O)c3cc(C)ccc3NC(=O)[C@@]12C` stands 13.6%.
Under `Cl.Nc1ncnc2c1CCC2` stands 9.16%; under `O=C(Cn1cccc1C(=O)c1ccccc1)NCc1ccc2c(c1)OCO2`, 4.28%.
The figure for `CCOC(=O)Cc1nnc(NC(=O)CSc2nc3ccccc3[nH]2)s1` is 13.8%.
`Cc1ccc(S(=O)(=O)N2CCCC2C(=O)OCc2ccco2)cc1` (centres unmarked): the “hERG current change (%, negative = inhibition) at 1uM” value is -1.18%.
`COc1cc(OC)cc(C(=O)Nc2nc(-c3ccccc3)c(-c3ccccc3)o2)c1`: the “hERG current change (%, negative = inhibition) at 1uM” value is on record as 1.07%.
On to `O=C(CC(c1ccccc1)c1cc(Br)ccc1O)NCc1ccco1` (centres unmarked), for which the “hERG current change (%, negative = inhibition) at 1uM” value is given as -5.62%.
With `CN1C(CC(=O)Nc2ccc(Br)cc2)c2ccccc2CC1(C)C` (centres unmarked), the “hERG current change (%, negative = inhibition) at 1uM” value came out at 21.3%.
For the compound `CC(=O)c1sc(NC(=O)c2cnc(Cl)c(Cl)c2)nc1C`, the “hERG current change (%, negative = inhibition) at 1uM” value is on record as 13.7%.
Under `Cc1ccc(C(OCCN(C)C)c2cccc(C(F)(F)F)c2)cc1.O=C(O)/C=C\C(=O)O` (centres unmarked) stands -6.41%; under `Cc1ccccc1OCC(=O)OC(C)C(=O)NC1CCCC1` (centres unmarked), 12.3%; under `CCOc1ccc2c(c1)C(c1ccc(C)cc1)=NNC(c1ccc(C)cc1)=N2`, 4.76%.
As for `O=C(Nc1ccccc1C(F)(F)F)N1CCCC1c1cccnc1` (centres unmarked), the “hERG current change (%, negative = inhibition) at 1uM” value is 13.1%.
Regarding `O=C(Nc1nccs1)c1cc(-c2ccco2)nc2ccccc12`, the “hERG current change (%, negative = inhibition) at 1uM” value was 8.17%.
As for `C/C(=N/NC(=O)c1cccc(N2CCCC2=O)c1)c1ccc(Br)cc1`, the “hERG current change (%, negative = inhibition) at 1uM” value amounted to 4.79%.
The figure for `CCCCn1nc(C(=O)NCc2ccccc2CN2CCCC2)c2ccccc2c1=O` is -16.9%.
